The subject of this assay is 845751-090-R-J2-PDC tumor spheroid viability. The assay is described as follows: Anticancer human tumor 845751-090-R-J2-PDC patient-derived head and neck squamous carcinoma cell line growth inhibition [IpAb]. The conditions noted are these: spheroids with HUVEC and MSC; for viability, T/C: stronger effect = lower value. From the text:
Combinatorial screen of targeted agents with ipatasertib and abemaciclib in multi-cell type tumor spheroids
A high-throughput screen of multi-cell type tumor spheroids was designed to identify active combinations of targeted small molecules and ipatasertib or abemaciclib. Complex spheroids include a stromal component modeled by human endothelial cells (HUVEC) and fibroblasts modeled by human mesenchymal stem cells (MSCs). The concentration ranges selected for each drug and investigational agent were based upon clinically achievable concentrations if the clinical Cmax of the agent was known.
Compounds. The drugs and investigational agents: ipatasertib (NSC767898), abemaciclib(NSC768073), selumetinib (NSC741078), trametinib (758246), adavosertib (NSC754352), everolimus (NSC733504), sapanisertib (NSC764658), vemurafenib (NSC761431), venetoclax (NSC766270), copanlisib (NSC809693), apelisib (NSC765974), palbociblib (NSC758247), vemurafenib (NSC761431), dabrafenib (NSC764134), ravoxertinib (NSC781343), BMS-387032 (NSC767048), sotorasib (NSC818433), talazoparib (NSC767125) and afursertib (NSC778305), were obtained from the National Cancer Institute (NCI) Developmental Therapeutics Program Chemical Repository. The FDA-approved anticancer drug set is available from the NCI Developmental Therapeutics Program. […] The stock solutions were prepared in dimethyl sulfoxide (DMSO, Sigma-Aldrich, St. Louis, MO, cat. D2650) at 800-fold the tested concentration and stored at -70 degrees C prior to their use. All drugs and investigational agents were tested over a range starting from a high concentration at or near the clinical Cmax and decreasing in half-log increments. If the clinical Cmax for an agent had not been determined, the highest concentration tested was 10 microM.
NCI60 Cell Culture. NCI60 cell lines were obtained from the NCI Developmental Therapeutics Program Tumor Repository. For each lot of cells, the Repository performed Applied Biosystems AmpFLSTR Identifiler testing with PCR amplification to confirm consistency with the published Identifier STR profile for each cell line. Cells were kept in continuous culture for no more than 20 passages. The optimal seeding densities for each of the cell lines at each time point assessed were determined prior to performing the concentration response studies. Briefly, the NCI60 human tumor lines were grown as monolayers in RPMI 1640 medium supplemented with 10% FBS and 2 mmol/L L-glutamine.
An additional 9 lines were from the NCI60 cell line panel including MDA-MB-231 breast carcinoma, MDA-MB-468 breast carcinoma, MCF7 breast carcinoma, Hs578T breast carcinoma, MALME-3M melanoma, SK-MEL-2 melanoma, SK-OV-3 ovarian carcinoma, DU-145 prostate carcinoma, PC-3 prostate carcinoma, all cell lines along with major genetic alterations are listed on Table 2. Pooled donor human umbilical vein endothelial cells (HUVEC, Lonza, cat. CC-2519) and human mesenchymal stem cells (hMSC, Lonza, cat. PT-2501) were purchased from Lonza (Walkersville, MD).
PDMR cell lines were grown in complete medium (DC medium): Dulbecco's modified Eagle's medium (DMEM)/F12 supplemented with 5% fetal bovine serum (FBS), 2 mM L-glutamine, 100 U/mL penicillin and 100 µg/ml streptomycin, 0.4 µg/ml hydrocortisone, 10 ng/ml epidermal growth factor (EGF) recombinant human protein, 24 µg/mL adenine, and 0.1 mg/mL primocin. During culture from frozen stock vials, PDMR cells were cultured in the same medium containing 10 µM Y-27632 (see Table 3). The PDCs were cultured in complete DMEM/F12 media without 10 microM Y-27632 dihydrochloride for at least two passages prior to the screen. The pooled donor HUVEC and hMSC were cultured in endothelial cell growth medium 2 (PromoCell, Heidelberg, Germany, cat. C-22011) and mesenchymal stem cell growth medium 2 (PromoCell, cat. C-28009), respectively. For all experiments, HUVEC and hMSC were used at passages </=5.
[…]

Not every entry of the source has a single result; some have several. They are shown here; other results are not. The source may hold further records. The values listed for one entry are repeated measurements across runs, samples, wells, individuals or studies. Brackets with × say how often a value occurs here.

The IC50 is the concentration that inhibits the measured activity by half.
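Note: spheroids exposed to compounds for 7 days before readout.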
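Throughout, for viability, T/C: CTG3D luminescence normalised so that 100% = DMSO vehicle control.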

Take `CCN1CCN(Cc2ccc(Nc3ncc(F)c(-c4cc(F)c5nc(C)n(C(C)C)c5c4)n3)nc2)CC1`: the viability, T/C (compound alone 0.01 µM) was 85.4, 80.7, 83.9, 86.8, 87.7, 80.2, 94, 61.3, 94.3, 118, 86.1, 89.8, 67.7%; the viability, T/C (compound alone 0.0316 µM) is 79.5, 71.1, 71.6, 71.8, 56, 62.8, 83.9 (2×), 70.5, 75.4, 74.5, 63.6, 68.7%; the viability, T/C (compound alone 0.1 µM) was 80.5 (2×), 71.4, 69, 79, 57.5, 57.3, 80.8, 70.8, 60.4, 63.9, 86.2, 56.2%; the viability, T/C (compound alone 0.316 µM) was 54.9, 60 (2×), 43.7, 85, 57.3, 85.8, 75, 63.6, 53.5, 72.9, 61, 58%; the viability, T/C (compound alone 1 µM) is 75.7, 82.1, 65.3, 107 (2×), 78.9, 85.9, 98.1, 78.4, 63.5, 91.9, 94.4, 76.6%.
As for `CC(C)NCC(C(=O)N1CCN(c2ncnc3c2C(C)CC3O)CC1)c1ccc(Cl)cc1` (stereo not drawn), the viability, T/C (compound alone 0.1 µM) was 55, 75.3, 46.4, 89.7, 49.8, 46.7, 47.4, 43.1, 61.4, 61.1, 39.5, 76.5, 57.4% and the viability, T/C (compound alone 0.316 µM) is given as 28.1, 27.3, 32.5, 31.1, 35.4, 26.8, 26.6, 29.3, 34.4, 39.8, 24.1, 55.4, 22.9%. Besides, the IC50 (compound alone, run of 05/18/2021) is given as 122 nM, 199 nM, < 100 nM, 225 nM, 179 nM, 223 nM, 411 nM, 128 nM.

The values above are taken from PubChem BioAssay AID2060333 (Molecular Pharmacology Branch, DTP, NCI, 2025).
